This is one part of the list. At the low end of the ranking the order means little.

Data on 172 sequences can be found in paper PMC10668032.

For the assay, the target named is SIX1-Q177R homeodomain (UniProt Q15475). The assay can be described thus: universal protein binding microarray. To be noted: Universal all-10-mer PBM (8x60K, AMADID 030236), 300 nM GST-tagged protein, Alexa Fluor 488 anti-GST; buffer, salt, pH and temperature not stated; high values mean tight binding; most listed sequences are background and not binding sites; double strand, one strand shown.
As for ATACTCTA, the binding signal was found to be 0.00234 E-score. ATTTGAGC: the binding signal is -0.0724 E-score.

As for CTAACCGA, the binding signal is -0.0115 E-score. The value for AGCCCCGG was 0.0308 E-score; that for ACAGCTCC was -0.122 E-score. With CGCAATAA, the binding signal is -0.00154 E-score. Take ATATCACG: the binding signal is -0.0469 E-score.

As to ACTGTTCT, the binding signal is -0.0181 E-score. With AGGAGAGA, the binding signal was -0.0347 E-score. The value for GTTGTTCA was -0.0874 E-score; that for CTGTCGAA was -0.107 E-score; that for TACGTTCA was -0.117 E-score. The value for ACCCCACT was 0.207 E-score; that for CTACCGAG was -0.00206 E-score. The value for GTTGGGGA was 0.218 E-score; that for CCCGGTAC was 0.22 E-score; that for ATAGCCGG was -0.0319 E-score. For the sequence GGTCGGGA, the binding signal stood at 0.159 E-score. Turning to GCATCCCC, the binding signal is -0.178 E-score. The value for CAACCTAA was -0.147 E-score; that for AGTCACAA was 0.0766 E-score; that for CTAAAACC was 0.0354 E-score. Regarding AGAACACC, the binding signal amounted to 0.459 E-score. The value for CCATAGCC was 0.0381 E-score. The value for ACACCGGT was 0.481 E-score; that for CCATGCTC was -0.0521 E-score; that for ACGGATTC was -0.00227 E-score.

GAATTGCA: the binding signal was -0.214 E-score.

CCATCATC: the binding signal was -0.114 E-score.

With ACCAACTA, the binding signal was 0.115 E-score. The value for ATCTGTTC was -0.248 E-score; that for CAATTCGC was -0.00761 E-score; that for AGCTCTAA was -0.0461 E-score. Consider ATAGCTCC, for which the binding signal is -0.232 E-score.

CCCGTAAA: the binding signal was -0.0585 E-score. The value for CGAGTCGA was 0.151 E-score. The value for GCATCAAC was -0.14 E-score; that for CTATGCTC was 0.0665 E-score.

Take ACGATGGG: the binding signal came to 0.151 E-score. TATCACGA: the binding signal turned out to be 0.0808 E-score. The value for ATCGCAAA was -0.149 E-score; that for GCAGACGC was -0.0935 E-score. The value for AGCAATTC was -0.202 E-score; that for GGTAATAC was 0.108 E-score. The value for AGCCGAAC was -0.136 E-score; that for AGCTATTG was -0.11 E-score; that for ACGGTTGC was -0.134 E-score. As for ACGTCGAG, the binding signal turned out to be 0.0549 E-score. Regarding AACATTGC, the binding signal is -0.25 E-score. The value for AGATGATA was -0.0114 E-score; that for CATGCCAG was -0.19 E-score. Consider CTTATTGC, for which the binding signal is -0.216 E-score. The value for CACAAAAC was 0.0539 E-score; that for ATGAGGAA was -0.143 E-score; that for CAATCGGG was -0.0102 E-score. As for ACATTGCG, the binding signal was -0.121 E-score. The value for AGTCCGAT was -0.109 E-score; that for CTAACCAA was 0.0416 E-score. The value for AGAAAGCC was -0.304 E-score.

For the sequence ACTAGACG, the binding signal amounted to 0.0673 E-score.

Consider AGTTCGGG, for which the binding signal was -0.179 E-score. The value for AGAGCTCT was -0.16 E-score; that for ATATCAAC was -0.0233 E-score; that for CGTGGCGC was -0.273 E-score. The value for GCGAATCC was 0.0153 E-score; that for CCGTCAGC was -0.173 E-score; that for AATAGCCC was -0.0756 E-score.

Turning to GGAAGACA, the binding signal worked out at 0.155 E-score. Consider AAGATACT, for which the binding signal is -0.0816 E-score. For TATGCATA, the binding signal stood at 0.0285 E-score. The value for AGGGTCCC was -0.149 E-score.

Take CCGCTAGA: the binding signal is -0.0311 E-score. The value for AGTCGTGA was 0.00548 E-score. For GGCCCTGA, the binding signal is -0.141 E-score. The value for ATGCTGGG was 0.0701 E-score. In the case of CGGATTGA, the binding signal was 0.0653 E-score. The value for AGTATCCC was 0.139 E-score; that for CGTGTTTC was 0.339 E-score. The value for CCGCTCTC was -0.251 E-score.

As for GAGCCAAA, the binding signal was -0.233 E-score. The value for CCTCCAAC was 0.0637 E-score.

As to AATCCAGG, the binding signal is -0.0225 E-score. The value for CTCCTCTA was 0.0908 E-score; that for CGGCTTCC was 0.144 E-score; that for AAAGGCCG was -0.12 E-score. The value for ATACACAC was 0.315 E-score. The value for ATGTTATC was -0.0443 E-score; that for AGGTCGGG was -0.000815 E-score. As to CGAGTCAG, the binding signal was -0.0723 E-score. As for ATGGTTCC, the binding signal is -0.0242 E-score. In the case of AGCCTTAT, the binding signal was -0.134 E-score. As for AACTGAAC, the binding signal was -0.174 E-score. The value for TGATCAAA was -0.00451 E-score.

For the sequence AGAGCCGA, the binding signal is -0.268 E-score. The value for GCATATTA was -0.0109 E-score. The value for CCTCCACA was -0.0147 E-score; that for ACCCCGGC was 0.262 E-score.

Turning to GATTAAGC, the binding signal is -0.21 E-score. The value for ACATCCGG was -0.00423 E-score. With CTCATAAC, the binding signal was found to be 0.0542 E-score. The value for AGGGTAGG was 0.176 E-score; that for AGCATCTA was -0.176 E-score. The value for CGGAGTCA was 0.356 E-score; that for GCAACTCC was 0.0875 E-score; that for AACACTAG was 0.357 E-score. In the case of ACCGTACG, the binding signal is -0.0127 E-score. The value for CGCCAGAC was -0.227 E-score; that for ACGGTTTG was 0.118 E-score; that for ATGCCGAG was -0.126 E-score.

Take ATTTACCG: the binding signal is -0.0397 E-score. AAAAACAG: the binding signal was -0.223 E-score. As to TACGAATA, the binding signal is -0.0556 E-score. The value for TGGCCAAA was -0.0967 E-score; that for ACAAAGCT was -0.034 E-score; that for CGATTGAC was -0.154 E-score.

For ATCTACAG, the binding signal is -0.133 E-score. Consider AAAACGGA, for which the binding signal is -0.157 E-score. Take GTGCGAGA: the binding signal was -0.0792 E-score. Consider CAAAGGCG, for which the binding signal came to 0.114 E-score. Turning to CGAACCAA, the binding signal is -0.0999 E-score. The value for ACAGCGTA was -0.0867 E-score; that for AGAGCTTA was -0.186 E-score. The value for GCTGTCAC was 0.0253 E-score; that for CCAGTGGA was -0.202 E-score; that for GATACTAA was 0.129 E-score. The value for CGGACTGA was -0.23 E-score; that for CACTCAAC was 0.168 E-score. As to CTTACGGA, the binding signal is -0.114 E-score. The value for GGACCAGA was -0.0439 E-score; that for GACATTCC was -0.119 E-score. The value for AGACGAAG was -0.165 E-score; that for ACATGGAT was -0.0392 E-score; that for CGGGAGCC was 0.0631 E-score. Regarding GGCAGGAC, the binding signal turned out to be 0.11 E-score. The value for GCACCGTA was 0.201 E-score; that for AGCGGGCA was -0.159 E-score; that for ATACTTGC was -0.119 E-score. The value for ACCCCCTC was 0.324 E-score; that for AGTGAGGG was 0.00977 E-score; that for CAACTCGG was 0.114 E-score. The value for CCAGGCAC was -0.0485 E-score; that for CAGTTCAC was -0.0459 E-score; that for GTCCAACA was 0.216 E-score. On to ACCCTTAA, for which the binding signal is 0.175 E-score. The value for TCACCAGA was -0.0487 E-score; that for TAATCGGA was 0.0637 E-score; that for CACGTCCA was 0.108 E-score. The value for ATACGCCA was 0.151 E-score; that for GAGAGCTC was -0.242 E-score; that for CAATGGGC was -0.085 E-score. On to ATTCGTAG, for which the binding signal is 0.028 E-score.

Consider CTGCAGTC, for which the binding signal was -0.144 E-score. The value for ACGATTAC was 0.0246 E-score; that for CTTTTTAC was -0.0364 E-score; that for AGACCAAA was -0.37 E-score. The value for CTTAACAC was 0.435 E-score.

GATGACAC: the binding signal was 0.466 E-score. The value for ACGGTCGC was -0.237 E-score. Turning to CGTAACAC, the binding signal came to 0.41 E-score. As for GGTCTTAA, the binding signal is -0.02 E-score.

As to CGAGAGCG, the binding signal is -0.244 E-score.

For the sequence CCGAGTTC, the binding signal came out at 0.0412 E-score.

In the case of CGTAAGCA, the binding signal was -0.172 E-score. The value for CTCCACAG was -0.051 E-score; that for AGATAAAC was -0.122 E-score.

For ACCGCTTG, the binding signal is 0.067 E-score. The value for GTATTGCA was 0.128 E-score.

On to AGAGGGTC, for which the binding signal is -0.0271 E-score.

As to CTCACTAA, the binding signal was -0.0499 E-score. The value for CTGAAGTA was -0.321 E-score; that for AACGCATT was -0.0289 E-score; that for CACTGCGA was 0.143 E-score.
